These results are taken from the supplement of paper PMC11417369.

The list shows a part of the results.

In the assay the test system is PfAP2-HC AP2 domain (GST-tagged). Description: gcPBM binding intensity (ln(normalized median fluorescence intensity)); higher = stronger DNA binding. An outline of the steps: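 For binding intensity, the highest Masliner-normalised natural-log median intensity across replicate spots of either probe orientation was taken. Protein bound to the array was stained with Alexa488 anti-GST antibody and scanned at 488 nm. The protein, GST-tagged P. falciparum DNA-binding domains from E. coli at about 25 μg on average, had been applied for 1 h to an Agilent 4 × 180k array of primer-extended double-stranded 36-bp intergenic genomic probes and negative controls.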
For the sequence “AATATAGGAATATGCACACATATATACATACATACA [CACACA_site1521]”, the “gcPBM binding intensity (ln)” value was found to be 9.91.

Consider “TTTTTTAAAGTTTAAAGTACATATAAAAATATATAA [XGTACX_site5267]”, for which the “gcPBM binding intensity (ln)” value was 9.28.

Regarding “TATGAAAAAAAAAAAAAAAAAAAAAAAAAAAAAAAA [XGTACX_negctrl_site587]”, the “gcPBM binding intensity (ln)” value came out at 8.64.

As for “ATATATATATATTTATGTACATATTATTTATTCTTT [XGTACX_site6567]”, the “gcPBM binding intensity (ln)” value was determined as 9.99.

On to ATTATTTGATTAAAGGTGCAAGGATAATAATAAAAC, for which the “gcPBM binding intensity (ln)” value worked out at 9.79.

For the sequence “TAATGGTATAAAAAATGTACATGTTTTTTTACAATT [XGTACX_site4285]”, the “gcPBM binding intensity (ln)” value was found to be 9.65.

Take “TATTATATAATATACTGTACAATATCCATTATTTAC [XGTACX_site7091]”: the “gcPBM binding intensity (ln)” value was 9.71.

As for “TATATTTACTTATATGCACACATAAATGTGAATTAT [CACACA_site9258]”, the “gcPBM binding intensity (ln)” value came to 9.79.

Take ACATATAATAAAATAGTGCATTGTTAGTTTTATATA: the “gcPBM binding intensity (ln)” value is 9.64.

For the sequence “AATTAATAAAAAAGGTGTACAGTAAATGCAATAATC [XGTACX_site7956]”, the “gcPBM binding intensity (ln)” value worked out at 9.93.

Regarding “TCTTTTATATATAATAATTATATATAACATTCAAAC [GTGCAC_negctrl_site112]”, the “gcPBM binding intensity (ln)” value worked out at 9.65.

“GTTAATCACCATGTGGTGCATATAAGGGCATATTAT [GTGCAC_site9748]”: the “gcPBM binding intensity (ln)” value was found to be 9.59.

For the sequence “ATAAATTCATACATTTGTACACAAAAAAAAAAAAAA [XGTACX_site2435]”, the “gcPBM binding intensity (ln)” value turned out to be 9.47.

“CCTTATACGATATTATGTACGCATATGTGCATTTTT [XGTACX_site1570]”: the “gcPBM binding intensity (ln)” value stood at 9.83.

As to “ATATATATATATATATGTACGTATAATATATATATG [XGTACX_site2212]”, the “gcPBM binding intensity (ln)” value turned out to be 9.75.

As for “ATTATTCAGGTAAAGTGTACAGGAGAAAAATAAAAT [XGTACX_site334]”, the “gcPBM binding intensity (ln)” value stood at 9.99.

As for “CGCACCCAAATATATACACACATATATATATATATA [CACACA_site1651]”, the “gcPBM binding intensity (ln)” value turned out to be 9.81.

With “ATTGTAAGGAAACACACACACATATATATGTATATA [CACACA_site676]”, the “gcPBM binding intensity (ln)” value amounted to 10.2.

In the case of “TATATGTTTAATTTCACACACAAATATGCATTTTAA [CACACA_site7881]”, the “gcPBM binding intensity (ln)” value was 9.83.

On to “AAATAAATACTAGGCACACACACATATATATATATA [CACACA_site2079]”, for which the “gcPBM binding intensity (ln)” value was 11.

Consider “ATTATTGTAATATTAGCACACATTACCTCACTACAA [CACACA_site2560]”, for which the “gcPBM binding intensity (ln)” value was 10.

Consider AAATTTGCTTTACCAGTGCAAAAAAAAAAAAAAAAA, for which the “gcPBM binding intensity (ln)” value was determined as 9.3.

On to “AAATCACATAAAAATAGTACTTTTTTTTTTTTTTTT [XGTACX_site2696]”, for which the “gcPBM binding intensity (ln)” value was determined as 9.47.

On to “TGTTTTTATCCTTATGGTACAGTATAATACTTACAG [XGTACX_site6381]”, for which the “gcPBM binding intensity (ln)” value came to 9.65.

On to “GGAAAATGAAAACAAGGTACACATAAGAACAAACAA [XGTACX_site1221]”, for which the “gcPBM binding intensity (ln)” value was found to be 10.4.

With “AATAGGGTCATTCAAAAAAAAAAAAAATAATAATAC [CACACA_negctrl_site644]”, the “gcPBM binding intensity (ln)” value turned out to be 9.37.

As for “AATATAAAAATGTTTACACACACACGGAAATATATT [CACACA_site7226]”, the “gcPBM binding intensity (ln)” value amounted to 10.3.

As for “TAAAATTAATAAAATATTTTCACTTAATATATATAA [CACACA_negctrl_site1550]”, the “gcPBM binding intensity (ln)” value worked out at 9.44.

“ATGTTGTACAAACACACACACAAAAAAAAAATAAAA [CACACA_site2406]”: the “gcPBM binding intensity (ln)” value came out at 10.8.

Turning to “ATATATATATGTGGATGTACATATATCTCTTATTAT [XGTACX_site1748]”, the “gcPBM binding intensity (ln)” value stood at 9.81.

Regarding “AATTATTAAATATGTACACACGTACATTTTATAAAT [CACACA_site5341]”, the “gcPBM binding intensity (ln)” value was 9.71.

On to “AGTACATTATAGAATACACACCTATATATATATATA [CACACA_site4447]”, for which the “gcPBM binding intensity (ln)” value came out at 10.2.

For the sequence “TATTTTGTTCTTTCCACACACAAATACATATATTGT [CACACA_site4071]”, the “gcPBM binding intensity (ln)” value worked out at 10.3.

For the sequence “TAATACATACACACATGTACATACAGAAATAAATAA [XGTACX_site3245]”, the “gcPBM binding intensity (ln)” value was 10.1.

In the case of “AAAAAGAAGAAGAAATGTACGTAACTATATATTTAT [XGTACX_site4362]”, the “gcPBM binding intensity (ln)” value stood at 9.69.

As to “TTTTACATAAATTATAAATATATAAAATAAAAAAAA [CACACA_negctrl_site1499]”, the “gcPBM binding intensity (ln)” value worked out at 9.49.

In the case of “TTAATATTCCAGCTTTGTACATATATATATTATAAA [XGTACX_site7954]”, the “gcPBM binding intensity (ln)” value was 9.55.

Turning to “TGGCTTTCCCTGCCGGTGCATTAACATTTTTTACAT [GTGCAC_site9914]”, the “gcPBM binding intensity (ln)” value turned out to be 9.72.

As to “TTAATGGAAAAATAGGCACACACACCGATATACATA [CACACA_site8356]”, the “gcPBM binding intensity (ln)” value turned out to be 10.3.

With “CATATATATATTTTTTGTACATATATTTTTACATAT [XGTACX_site8419]”, the “gcPBM binding intensity (ln)” value was found to be 10.1.

Take “AATTCAATTGAGCAAAATTCAAATAAATTAAAAAGA [XGTACX_negctrl_site71]”: the “gcPBM binding intensity (ln)” value came out at 9.63.

As for “CAAAAATAATTTAGGTGTACAAATTTGACAAAAAAA [XGTACX_site188]”, the “gcPBM binding intensity (ln)” value was 9.79.

As to ATGAAACACTCCATAGTGCAAAATATATATTATATT, the “gcPBM binding intensity (ln)” value was 9.72.

In the case of “CTATTTTTCCTGAAATGTACAAGAATTTTATTTGAT [XGTACX_site8867]”, the “gcPBM binding intensity (ln)” value worked out at 9.49.

In the case of “TGATAATATTATATATGTACATATATGTATATTTTT [XGTACX_site7193]”, the “gcPBM binding intensity (ln)” value was found to be 9.74.
